# Data: the supplement of paper PMC8728848
# The sample as a whole holds a higher share of the strongest signals than the screen did.
# B1: SLex-MBP-2 (Rattus norvegicus) (protein)
# chain: MLLLPLLVLLCVVSVSSSGSQTCEETLKTCSVIACGRDGRDGPKGEKGEPGQGLRGLQGPPGKLGPPGSVGAPGSQGPKGQKGDRGDSRAIEVKLANMEAEINTLKSKLELTNKLHAFSMGKKSGKKFFVTNHERMPFSKVKALCSELRGTVAIPRNAEENKAIQEVAKTSAFLGITDEVTEGQFMYVTGGRLTYSNWKKDEPNDGGSGEDCYIKREKDNGLWNDISCQKKKTAVCEFPA
# What was measured:
# Assay in all cases: glycan array binding signal (z-score within array); higher = stronger binding
# Settings in all cases: glycan notation: IUPAC condensed, linker removed
# [1] = biological target: Fuc(a1-2)Gal(b1-3)GalNAc(b1-3)Gal
# Method in brief: (§1)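 Glycan array data came from 3228 arrays in the Consortium for Functional Glycomics database, and only arrays with an available protein sequence were kept. Glycan names were put into IUPAC-condensed notation, and columns mapping to the same glycan were averaged. The binding signal is a within-array Z-score, averaged across arrays of one protein sequence run at different concentrations or buffers and across linkers. A negative Z-score can be read as non-binding.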
# [2] = biological target: Fuc(a1-2)Gal(b1-3)GalNAc(b1-3)Gal(a1-4)Gal(b1-4)Glc
# Method in brief: as §1
# [3] = biological target: Fuc(a1-2)Gal(b1-3)GalNAc(b1-3)Gal(b1-4)Glc
# Method in brief: as §1
# [4] = biological target: Fuc(a1-2)Gal(b1-3)GalNAc(b1-4)[Neu5Ac(a2-3)]Gal(b1-4)Glc
# Method in brief: as §1
# [5] = biological target: Fuc(a1-2)Gal6S(b1-4)GlcNAc
# Method in brief: as §1
# [6] = biological target: Fuc(a1-2)[GalNAc(a1-3)]Gal(b1-4)GlcNAc
# Method in brief: as §1
# [7] = biological target: Fuc(a1-2)[GalNAc(a1-4)]Gal(b1-4)GlcNAc
# Method in brief: as §1
# [8] = biological target: Fuc(a1-3)GlcNAc
# Method in brief: as §1
# [9] = biological target: Fuc(b1-3)GlcNAc
# Method in brief: as §1
# [10] = biological target: Gal(a1-6)Glc
# Method in brief: as §1
# [11] = biological target: Gal(b1-3)[Fuc(a1-4)]GlcNAc(b1-3)Gal(b1-4)GlcNAc
# Method in brief: as §1
# [12] = biological target: Gal(b1-3)[Fuc(a1-4)]GlcNAc(b1-3)Gal(b1-4)[Fuc(a1-3)]GlcNAc
# Method in brief: as §1
# [13] = biological target: Gal(b1-3)[GlcNAc(b1-6)]GalNAc
# Method in brief: as §1
# [14] = biological target: Gal(b1-4)Glc6S
# Method in brief: as §1
# [15] = biological target: Gal6S(b1-4)Glc
# Method in brief: as §1
# [16] = biological target: GlcNAc(b1-2)Gal(b1-3)GlcNAc
# Method in brief: as §1
# [17] = biological target: GlcNAc(b1-3)Gal
# Method in brief: as §1
# [18] = biological target: Man(a1-2)Man(a1-2)Man(a1-3)[Man(a1-2)Man(a1-3)[Man(a1-2)Man(a1-6)]Man(a1-6)]Man(b1-4)GlcNAc(b1-4)GlcNAc
# Method in brief: as §1
# [19] = biological target: Man(b1-4)GlcNAc
# Method in brief: as §1
# [20] = biological target: Neu5Ac(a2-3)Gal(b1-4)Glc
# Method in brief: as §1
# [21] = biological target: Neu5Ac(a2-3)Gal(b1-4)GlcNAc(b1-3)Gal(b1-4)GlcNAc
# Method in brief: as §1
# [22] = biological target: Neu5Ac(a2-3)[GalNAc(b1-4)]Gal(b1-4)Glc
# Method in brief: as §1
binder,measurement,setting,value
B1,glycan array binding signal (z-score),[1],0.35
same,glycan array binding signal (z-score),[2],0.001
same,glycan array binding signal (z-score),[3],-0.354
same,glycan array binding signal (z-score),[4],-0.209
same,glycan array binding signal (z-score),[5],-0.191
same,glycan array binding signal (z-score),[6],-0.131
same,glycan array binding signal (z-score),[7],-0.176
same,glycan array binding signal (z-score),[8],-0.346
same,glycan array binding signal (z-score),[9],0.063
same,glycan array binding signal (z-score),[10],1.32
same,glycan array binding signal (z-score),[11],-0.224
same,glycan array binding signal (z-score),[12],-0.205
same,glycan array binding signal (z-score),[13],-0.249
same,glycan array binding signal (z-score),[14],-0.097
same,glycan array binding signal (z-score),[15],0.239
same,glycan array binding signal (z-score),[16],0.612
same,glycan array binding signal (z-score),[17],-0.179
same,glycan array binding signal (z-score),[18],2.85
same,glycan array binding signal (z-score),[19],1.26
same,glycan array binding signal (z-score),[20],3.29
same,glycan array binding signal (z-score),[21],0.183
same,glycan array binding signal (z-score),[22],-0.271
